Measured values from PubChem BioAssay AID485344 (National Center for Advancing Translational Sciences (NCATS), 2010).
About 6,900 (2%) of roughly 340,000 compounds were called active. Cut-off read from the data, not from the text of the source: active = inhibition above about 30%; inactive = below that, where a call was filed. The entries are a selection whose mix differs from that of the whole data set. Entries without a call were filed so in the source.

Biological target: D(2) dopamine receptor (Homo sapiens) (UniProt P14416)
UniProt P14416, sequence (P14416 whole entry, looked up): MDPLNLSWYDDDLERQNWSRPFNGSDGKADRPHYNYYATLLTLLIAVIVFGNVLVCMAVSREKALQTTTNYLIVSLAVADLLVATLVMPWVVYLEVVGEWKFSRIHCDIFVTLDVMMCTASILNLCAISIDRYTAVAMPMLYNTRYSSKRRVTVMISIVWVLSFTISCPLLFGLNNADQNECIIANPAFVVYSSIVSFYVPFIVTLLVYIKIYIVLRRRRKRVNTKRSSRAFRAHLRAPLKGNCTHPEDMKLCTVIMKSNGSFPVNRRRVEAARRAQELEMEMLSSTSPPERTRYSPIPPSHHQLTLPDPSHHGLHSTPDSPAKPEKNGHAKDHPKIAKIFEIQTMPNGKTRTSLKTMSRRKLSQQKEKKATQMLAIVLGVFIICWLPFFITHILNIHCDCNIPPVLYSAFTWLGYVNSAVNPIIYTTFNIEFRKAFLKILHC
Experiment: HTS Assay for Allosteric Antagonists of the Human D2 Dopamine Receptor: Primary Screen for Antagonists; note: 0% is about no effect
Details: HEK293 TREx D2 cells, calcium flux, dopamine EC80; at 10 µM; stronger effect = higher value
Procedure, shortened: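 Read-out: kinetic calcium fluorescence (1 cycle/s) in inducible HEK293 T-REx D2 cells after an EC80 dopamine addition that followed 180 s compound preincubation. Loss of the dopamine response indicates antagonism.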

**Q.** With `Cc1cccc(C)c1OCC(=O)N1CCC(c2nc3ccccc3o2)CC1` as the compound, how does the inhibition read?
**A.** Its inhibition is 6.21%.

**Q.** With `COc1ccc(NC(=O)CN(C)S(=O)(=O)c2ccc(C(=O)N3CCOCC3)s2)cc1` as the compound, how does the inhibition read?
**A.** Its inhibition is -17.1%.

**Q.** `O=C(CN1CCN(c2ccc(O)cc2)CC1)Nc1cc(S(=O)(=O)N2CCCC2)ccc1Cl` was tested. Which inhibition did it give?
**A.** The inhibition was active: 43.9%.

**Q.** For `CC(=O)N1CCCc2cc(S(=O)(=O)N3CCCC(C(=O)NCc4ccccc4)C3)ccc21` (configuration not stated), which inhibition is on record?
**A.** Its inhibition is 1.67%.

**Q.** `Cc1cccc(NC(=O)CSc2cn(CC(=O)N3CCCC3)c3ccccc23)c1C` was tested. Which inhibition did it give?
**A.** Its inhibition is 1.16%.

**Q.** How did the inhibition turn out when `CCc1ccc(-c2cc(C)no2)cc1S(=O)(=O)Nc1ccc(Cl)cn1` was run?
**A.** The inhibition was 0.415%.

**Q.** Which inhibition does the source give for `Cc1ccc(Cn2cc(C(=O)c3ccc(C)cc3)c(=O)c3ccc(C)nc32)cc1` here?
**A.** Its inhibition is -0.295%.

**Q.** How did the inhibition turn out when `CCOc1ccc(NC(=O)Cn2cc(C(=O)c3ccc(OCC)cc3)c(=O)c3cc4c(cc32)OCCO4)cc1` was run?
**A.** The inhibition was -2.24%.

**Q.** Which inhibition does the source give for `COc1ccc(NC(=O)N(C(C)C)C2CCN(C(C)=O)CC2)c(OC)c1` here?
**A.** Its inhibition is 3.19%.

**Q.** `Cc1ccc(CCNC(=O)c2cc3cc4cc(C)ccc4nc3s2)cc1` was tested. Which inhibition did it give?
**A.** The inhibition was -13%.

**Q.** Which inhibition does the source give for `COc1cccc(N2CCN(C3OC(=O)c4ccccc43)CC2)c1` (configuration not stated) here?
**A.** Its inhibition is active: 30.5%.

**Q.** How did the inhibition turn out when `COc1ccccc1Cn1c(CNS(=O)(=O)c2ccc(CC(C)C)cc2)nc2cccnc21` was run?
**A.** Its inhibition is 4.18%.

**Q.** `CN(C)S(=O)(=O)N1CCC(n2cnc3cccnc32)CC1` was tested. Which inhibition did it give?
**A.** The inhibition was 9.42%.

**Q.** `O=C1C2=C(Nc3ccccc3SC2c2ccc(Cl)c(Cl)c2)c2ccccc21` (configuration not stated) was tested. Which inhibition did it give?
**A.** Its inhibition is 17.2%.

**Q.** Which inhibition does the source give for `COc1cccc(NC(=O)CN2C(=O)COc3ccc(S(=O)(=O)N4CCCCCC4)cc32)c1` here?
**A.** Its inhibition is -5.46%.

**Q.** `COC(=O)Cc1c(C)c2cc3c(c(C)c2oc1=O)OCN(CCc1ccc(F)cc1)C3` was tested. Which inhibition did it give?
**A.** The inhibition was 4.63%.

**Q.** How did the inhibition turn out when `CCc1ccc(NC(=O)CC2C(=O)N(c3ccc(C)cc3)C(=O)N2CCc2ccncc2)cc1` (configuration not stated) was run?
**A.** Its inhibition is -2.2%.

**Q.** `CCOc1ccc(N(CC)S(=O)(=O)N2CCCC(C(=O)Nc3ccc(NC(C)=O)cc3)C2)cc1` (configuration not stated) was tested. Which inhibition did it give?
**A.** The inhibition was 25.8%.

**Q.** How did the inhibition turn out when `CCOC(=O)c1ccc(NS(=O)(=O)c2cn(C)c(C)n2)cc1` was run?
**A.** Its inhibition is 6.42%.

**Q.** With `CCS(=O)(=O)c1nc(S(=O)(=O)c2ccc(C)cc2)c(NCc2ccc(Cl)cc2)s1` as the compound, how does the inhibition read?
**A.** Its inhibition is -16.4%.

**Q.** For `COc1cccc(C(=O)Nc2cc(-c3ccccc3)nn2-c2ccccc2)c1`, which inhibition is on record?
**A.** The inhibition was -0.35%.

**Q.** Which inhibition does the source give for `CCOc1ccc(-c2c(C)nn3c(-c4ccccc4)c(C(=O)NCCOC)cnc23)cc1OCC` here?
**A.** The inhibition was -8.93%.

**Q.** Which inhibition does the source give for `O=C(COc1ccc2oc3c(c2c1)CCCC3)Nc1ccc(Cl)cc1` here?
**A.** Its inhibition is -9.14%.

**Q.** How did the inhibition turn out when `CCOc1ccc(C(=O)Nc2ccc(C(=O)OCc3cc(=O)n4nc(CC)sc4n3)cc2)cc1` was run?
**A.** The inhibition was -27.7%.

**Q.** With `COc1ccc(/C=C/C(=O)N2CCC(c3nc4ccccc4o3)CC2)cc1` as the compound, how does the inhibition read?
**A.** Its inhibition is 18.5%.

**Q.** With `COc1ccc(NC(=O)CSc2ccc(-c3cccs3)nn2)cc1` as the compound, how does the inhibition read?
**A.** The inhibition was 15.7%.

**Q.** `N#Cc1nc(COc2ccccc2Cl)oc1NCc1cccnc1` was tested. Which inhibition did it give?
**A.** The inhibition was active: 40.5%.

**Q.** `COc1ccc(C(=O)Nc2nnc(S(=O)(=O)N3CCN(c4ccc(C)cc4)CC3)s2)cc1` was tested. Which inhibition did it give?
**A.** The inhibition was -10%.

**Q.** How did the inhibition turn out when `CC(Oc1ccccc1)C(=O)Nc1nnc(S(=O)(=O)N2CCCCCC2)s1` (configuration not stated) was run?
**A.** The inhibition was 7.06%.

**Q.** How did the inhibition turn out when `Cc1ccccc1C(=O)Nc1cccc(-c2cn3cccnc3n2)c1` was run?
**A.** The inhibition was 4.2%.

**Q.** How did the inhibition turn out when `Cc1ccc(Oc2nc3c(c(=O)n(Cc4ccccc4Cl)c(=O)n3C)n2C)cc1C` was run?
**A.** The inhibition was 2.8%.

**Q.** How did the inhibition turn out when `COc1cccc(-c2cc(C(=O)Nc3ccc4c(c3)OCO4)no2)c1` was run?
**A.** The inhibition was -9.52%.

**Q.** Which inhibition does the source give for `COc1ccc(-c2cc3nc(C)c(CCC(=O)Nc4ccc(F)cc4F)c(C)n3n2)c(OC)c1` here?
**A.** The inhibition was -7.23%.

**Q.** With `Cc1sc2nc(CSC(C)C(=O)NC3(C#N)CCCCC3)[nH]c(=O)c2c1C` (configuration not stated) as the compound, how does the inhibition read?
**A.** The inhibition was active: 38.3%.

**Q.** For `Cc1cc(C)c(Cn2c(=O)n(-c3ccccc3Cl)c(=O)c3c(C)c(C(=O)N(C)C)sc32)c(C)c1`, which inhibition is on record?
**A.** The inhibition was 4.23%.

**Q.** Which inhibition does the source give for `CC(=O)c1c(C)oc2ccc(NS(=O)(=O)c3ccc(C(C)C)cc3)cc12` here?
**A.** The inhibition was -4.55%.

**Q.** For `COc1cccc(N2CC(NC(=O)C3CCCCC3)CC2=O)c1` (configuration not stated), which inhibition is on record?
**A.** The inhibition was 12.1%.

**Q.** Which inhibition does the source give for `COc1ccc(N2CCN(C(=O)c3ccc4c(c3)N(Cc3cc(C)ccc3C)C(=O)c3ccccc3S4=O)CC2)cc1` (configuration not stated) here?
**A.** The inhibition was 2.13%.

**Q.** With `Cc1ccc(Cl)cc1N1CCN(C(=O)c2cn(CC(C)C)c(=O)c3c2c2ccccc2n3C)CC1` as the compound, how does the inhibition read?
**A.** The inhibition was -23.2%.

**Q.** For `CCOC(=O)c1nc(Nc2ccc(Cl)cc2)c2c(C)noc2n1`, which inhibition is on record?
**A.** Its inhibition is -7.44%.

**Q.** How did the inhibition turn out when `O=C(Nc1cc(C(F)(F)F)ccc1Cl)c1ccc2c(c1)CCN2S(=O)(=O)c1ccccc1` was run?
**A.** The inhibition was 5.61%.

**Q.** With `CCc1ccc(CNC(=O)C(CC)n2nc(C)c3c(C)n(-c4ccccc4)nc3c2=O)cc1` (configuration not stated) as the compound, how does the inhibition read?
**A.** Its inhibition is -8.93%.

**Q.** How did the inhibition turn out when `Cc1ccc(-c2c(C(=O)N/N=C/c3ccsc3)nnn2-c2nonc2N)cc1` was run?
**A.** The inhibition was active: 34.5%.

**Q.** For `CCCNc1ccc(-c2nc(-c3ccco3)no2)cc1[N+](=O)[O-]`, which inhibition is on record?
**A.** Its inhibition is 2.96%.

**Q.** Which inhibition does the source give for `Cc1cc(S(=O)(=O)n2ccnc2C(C)C)cc([N+](=O)[O-])c1C` here?
**A.** Its inhibition is 12.2%.

**Q.** Which inhibition does the source give for `COc1ccc(CNc2nc(-c3ccco3)nn2C(=O)CC(C)C)cc1` here?
**A.** The inhibition was 1.5%.

**Q.** With `CCOC(=O)c1[nH]c2ccccc2c1NC(=O)c1ccccc1OC` as the compound, how does the inhibition read?
**A.** The inhibition was -22.4%.

**Q.** Which inhibition does the source give for `COc1ccc(Cc2nnc(C(=O)NCCCN3CCN(c4ccccc4F)CC3)o2)cc1OC` here?
**A.** Its inhibition is 9.77%.

**Q.** With `CC(C)COc1ccc(Nc2ncnc3ccc(Br)cc23)cc1` as the compound, how does the inhibition read?
**A.** The inhibition was 15.7%.

**Q.** With `O=C(c1cccs1)N1CCN(c2ccccc2)CC1` as the compound, how does the inhibition read?
**A.** The inhibition was active: 31.4%.

**Q.** Which inhibition does the source give for `COC(=O)c1sccc1S(=O)(=O)N(CC(=O)NCc1ccc(F)cc1)c1ccc(C)c(C)c1` here?
**A.** Its inhibition is 0.387%.

**Q.** Which inhibition does the source give for `CNS(=O)(=O)c1cn(CC(=O)Nc2cccc(C(F)(F)F)c2)cc1S(=O)(=O)NC` here?
**A.** The inhibition was -1.26%.

**Q.** Which inhibition does the source give for `Cc1cccc(NC(=O)NC2COc3ccccc3C2)c1C` (configuration not stated) here?
**A.** The inhibition was 1.15%.

**Q.** For `CNS(=O)(=O)c1cn(CC(=O)N2CCN(c3ccc(C)cc3C)CC2)cc1S(=O)(=O)NC`, which inhibition is on record?
**A.** The inhibition was -6.05%.

**Q.** How did the inhibition turn out when `Cc1ccc(N2C(=O)CS(=O)(=O)C23C(=O)N(Cc2ccccc2F)c2ccccc23)cc1Cl` (configuration not stated) was run?
**A.** The inhibition was -4.68%.

**Q.** With `O=C(COc1ccccc1Cl)Nc1ccccc1OCc1cc(=O)n2ccccc2n1` as the compound, how does the inhibition read?
**A.** Its inhibition is -5.02%.

**Q.** For `O=C(CN1C(=O)C2CCCCN2c2ccc(C(=O)N3CCCC3)cc21)NCc1ccccc1F` (configuration not stated), which inhibition is on record?
**A.** The inhibition was 12.3%.

**Q.** With `CN(c1ccccc1)C(CNS(=O)(=O)c1ccccc1)c1ccccc1` (configuration not stated) as the compound, how does the inhibition read?
**A.** Its inhibition is 4.82%.

**Q.** Which inhibition does the source give for `CCCCN(CC)CCNc1ncnc2onc(-c3ccc(Cl)cc3)c12` here?
**A.** The inhibition was 8.01%.

**Q.** For `COc1ccccc1NC(=O)CN1CCN(CC(=O)Nc2ccc(F)c(F)c2)CC1`, which inhibition is on record?
**A.** The inhibition was -19.2%.

**Q.** Which inhibition does the source give for `Clc1cccc(OCCCCN2CCCCC2)c1` here?
**A.** The inhibition was active: 76.8%.

**Q.** How did the inhibition turn out when `O=S(=O)(Nc1cccc(-c2ccc(N3CCOCC3)nn2)c1)c1cc(C(F)(F)F)ccc1Cl` was run?
**A.** The inhibition was 10.7%.
